Measured values taken from PubChem BioAssay AID2147 (National Center for Advancing Translational Sciences (NCATS), 2009).
About 3,600 (1.6%) of roughly 230,000 compounds were called active. This list was built around the results that the source calls inconclusive (neither active nor inactive); the mix of calls is not that of the screen. The call rests on the fitted dose curve; in most records, active means well fitted inhibition curve with a large enough effect (not every such curve was filed as active); inconclusive means small, poorly fitted or top-dose-only effect, or another doubt; inactive means no such curve, though single readings can be large or run the other way. Potencies beside an inconclusive call are fits to weak or partial responses and may not hold up.

What follows are molecules tested against Lysine-specific demethylase 4E (Homo sapiens) (UniProt B2RXH2) (assay: qHTS Assay for Inhibitors of Human Jumonji Domain Containing 2E (JMJD2E)). Details: JMJD2E catalytic domain, FDH-coupled NADH fluorescence (FDH is formaldehyde dehydrogenase); series mostly up to 57.1 µM; activity change, negative = inhibition: at the top concentration.
Further: nearly all actives have a fitted effect of over 50% in size.
Potency means the concentration at half of the fitted maximal effect; tags describe the fitted curve by direction and shape.
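Wherever activity change, negative = inhibition is given: 0% = wells with enzyme and -100% = buffer wells without enzyme.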

Sequence of UniProt B2RXH2 (B2RXH2 whole entry, looked up, the tested form may be a part): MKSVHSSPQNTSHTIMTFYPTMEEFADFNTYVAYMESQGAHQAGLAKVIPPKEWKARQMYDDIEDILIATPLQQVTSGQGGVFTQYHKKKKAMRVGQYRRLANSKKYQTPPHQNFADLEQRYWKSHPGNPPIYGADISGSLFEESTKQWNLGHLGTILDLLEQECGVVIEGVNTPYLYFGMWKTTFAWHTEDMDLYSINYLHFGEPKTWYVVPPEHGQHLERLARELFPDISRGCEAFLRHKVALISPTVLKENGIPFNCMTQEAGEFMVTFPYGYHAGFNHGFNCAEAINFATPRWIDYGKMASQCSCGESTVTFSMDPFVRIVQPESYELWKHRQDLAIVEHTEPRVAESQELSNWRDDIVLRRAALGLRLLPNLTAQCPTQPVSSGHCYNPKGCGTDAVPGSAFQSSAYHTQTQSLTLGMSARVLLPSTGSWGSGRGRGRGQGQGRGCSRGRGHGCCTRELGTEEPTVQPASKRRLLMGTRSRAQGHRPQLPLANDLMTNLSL

SMILES | Potency | activity change, negative = inhibition
CN(C)c1ccc(/C=C/C(O)=C2/C(=O)N(C)C3(C)CC2c2ccccc2O3)cc1 (centres undefined) | inconclusive: 25.1 µM [inhibitor, single point] | 
CCCNC(=O)c1ccc2c(=O)n3c(-c4ccc(C)cc4)csc3nc2c1 | inconclusive: 28.2 µM [inhibitor, partial curve] | 
COc1ccccc1N(CC(=O)N/N=C/c1ccc(SC)cc1)S(C)(=O)=O | inconclusive: 35.5 µM [inhibitor, single point] | 
Cc1ccc(NC(=O)C(=Cc2ccc(C(=O)O)cc2)C(=O)Nc2ccc(C)cc2C)c(C)c1 |  | inactive: 3.95%
CCOC(=O)N1CCN(c2cc(NCCC(=O)O)c3c4c(onc24)-c2ccccc2C3=O)CC1 |  | inactive: -23%
Cc1c(NC(=O)c2c(N)n(-c3ccccc3)c3nc4ccccc4nc23)c(=O)n(-c2ccccc2)n1C | inconclusive: 35.5 µM [inhibitor, single point] | 
COc1cc(OC)c(C2CC(=O)N3CN(c4ccc(C)cc4)CSC3=C2C#N)cc1OC (centres undefined) | inconclusive: 35.5 µM [inhibitor, single point] | 
O=C(Nc1ccccc1C(=O)NCc1ccccc1)c1ccccc1Br | inconclusive: 39.8 µM [inhibitor, single point] | 
Cc1ccc(S(=O)(=O)N2CCOCC2)cc1C(=O)N1CCOCC1 |  | inactive: -3.86%
C[C@@H](C(=O)Nc1ccc2ccccc2c1)[C@H]1C[C@]1(C)[C@H](NC(=O)c1cnccn1)c1ccccc1 | inactive | 
CCn1cc(CN2CCc3c([nH]c4ccccc34)C2c2cccc(OC)c2)c(C)n1 (centres undefined) | inconclusive: 25.1 µM [inhibitor, partial curve] | 
CCc1nnc(NC(=O)CSc2nnc(-c3ccccc3O)o2)s1 | inconclusive: 28.2 µM [inhibitor, single point] | 
COc1ccc2cc(CN(Cc3ccco3)Cc3nnnn3C3CCCCC3)c(=O)[nH]c2c1 |  | inactive: -10.5%
CCCOc1ccc(N2C(=O)CC(SC(=N)N3N=C(c4ccccc4)CC3c3ccccc3)C2=O)cc1 (centres undefined) | inconclusive: 35.5 µM [inhibitor, single point] | 
CCc1ccc(NC(=O)C2CCCN2S(=O)(=O)c2ccc3c(c2)n(C)c(=O)c(=O)n3C)cc1 (centres undefined) | inconclusive: 35.5 µM [inhibitor, single point] | 
CN1/C(=C\C=C(C#N)C#N)C(C)(C)c2ccccc21 |  | inactive: 5.04%
Cc1ccc(C(=O)Oc2coc(CSc3nnc(NC(=O)C4CC4)s3)cc2=O)cc1C |  | inactive: 4.01%
CCCn1c2ccccc2c2nnc(SCC(=O)OCC)nc21 |  | inactive: 9.06%
O=C(CN1C(=O)NC2NC(=O)NC21)N/N=C/c1ccccc1F (centres undefined) |  | inactive: 3.12%
Cc1cccc(N(C(=O)CNC(=O)c2cccs2)C(C(=O)NC2CCCC2)c2cccnc2)c1 (centres undefined) | inconclusive: 39.8 µM [inhibitor, single point] | 
CCOC(=O)c1cc(C#N)c(SCC(=O)O)[nH]c1=O | inconclusive: 31.6 µM [inhibitor, partial curve] | 
CC1Cc2cc(C(=O)O)ccc2O1 (centres undefined) |  | inactive: 1.8%

SMILES | Potency | activity change, negative = inhibition
CNC(=O)C1CC(=O)N(CCc2ccc(OC)c(OC)c2)C(=Nc2ccc(F)cc2)S1 (centres undefined) | inconclusive: 28.2 µM [inhibitor, partial curve] | 
Cc1ccc(NC(=O)Nc2ccc3c(c2)C(=O)OC3)cc1Cl |  | inactive: -0.274%
COCCn1c(C)cc(C(=O)COc2ccc(C)nc2[N+](=O)[O-])c1C |  | inactive: -7.9%
Cc1ccc(OCCOc2ccc(Br)cc2)c([N+](=O)[O-])n1 |  | inactive: -13.1%
CCOC(=O)COc1ccc2c(=O)cc(-c3ccccc3)oc2c1 | inconclusive: 35.5 µM [inhibitor, single point] | 
CCCCCc1c(C)nc(N2CCc3ccccc3C2)[nH]c1=O |  | inactive: 2.88%
O=C(Nc1nccs1)c1ccc(-c2ccc(Cl)cc2Cl)o1 | inconclusive: 25.1 µM [inhibitor, partial curve] | 
Cc1cc(O)ccc1N/C=C1\CCCC1=O | inconclusive: 4.47 µM [inhibitor, single point] | 
O=c1[nH]c(=O)n(-c2ccccc2)c2c1C(C(F)(F)F)(C(F)(F)F)N=C(C1CCCCC1)N2 | inconclusive: 35.5 µM [inhibitor, single point] | 
CCCN(CCC)C(=S)Nc1cc(C(=O)OC)ccc1C(=O)OC | inconclusive: 25.1 µM [inhibitor, partial curve] | 
Cc1nc(N2CCCCC2)c2c(C)c(C(=O)Nc3cccc(C(F)(F)F)c3)sc2n1 | inconclusive: 28.2 µM [inhibitor, partial curve] | 
COc1ccc2cc(C)c3nnc(SCc4cccnc4)n3c2c1 | inconclusive: 14.1 µM [inhibitor, partial curve] | 
Cc1[nH]n(-c2ncc(-c3ccc(Cl)cc3)s2)c(=O)c1C(c1ccc(Cl)cc1)C(C#N)C#N (centres undefined) | inconclusive: 39.8 µM [inhibitor, single point] | 
O=C(Nc1ccc(N2CCOCC2)cc1)c1cn2ccccc2n1 | inconclusive: 7.08 µM [inhibitor, single point] | 
COC(=O)c1sccc1NC(=O)Nc1cccc(F)c1 | inconclusive: 39.8 µM [inhibitor, single point] | 
O=C(O)/C=C/C(=O)Nc1ccccc1-c1ccccc1NC(=O)/C=C/C(=O)O | inconclusive: 4.47 µM [inhibitor, full curve] | 
CC(=C1C(=O)c2ccccc2C1=O)N1CCC(C(N)=O)(N2CCCCC2)CC1 | inconclusive: 39.8 µM [inhibitor, single point] | 
CN(C)c1ncc(C(=O)O)cn1 | inconclusive: 25.1 µM [inhibitor, partial curve] | 
COC(=O)CSc1nnc(-c2ccco2)n1Cc1ccco1 | inconclusive: 0.708 µM [inhibitor, partial curve] | 
O=C1OC(c2ccc(Br)cc2)=N/C1=C\c1ccco1 |  | inactive: -4.58%
COC(=O)[C@H](Cc1ccccc1)NC(=O)[C@]1(C)C[C@H]1[C@H](NC(=O)OCc1ccccc1)c1ccccc1 |  | inactive: -5.1%
O=C(O)c1cc(-c2ccco2)nn1-c1cccc(Cl)c1 | inconclusive: 39.8 µM [inhibitor, single point] | 
